The record followed here is PubChem BioAssay AID1508642 (National Center for Advancing Translational Sciences (NCATS), 2021).

The campaign covered roughly 43,000 compounds. About 200 (0.47%) were called active. About 12% were inconclusive and are not listed. The call rests on the fitted dose curve; in most records, active means well fitted cell-killing curve with a large enough effect; inconclusive means small, poorly fitted or top-dose-only effect, or effect the other way; inactive means flat fitted curve, though single readings scatter. The list shows a part of the results.
On the % scale 0 is the no-effect control and ±100 the full control effect; potency means the concentration at half of the fitted maximal effect.

A short description of this test: Cell viability qHTS assay in S16 Pmp22-F2sN cells. Further: nearly all actives have a fitted effect of over 65% in size. The following applies: S16 Pmp22-F2sN Schwann cells (luciferase reporters placed in the Pmp22 gene) viability, CellTiter-Glo, 24 h; series mostly up to 57.5 µM; activity change, negative = cytotoxicity: at the top concentration. The gist of the method: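 Luminescence from CellTiter-Glo, read by CCD camera after a 15 min room-temperature incubation, served as the viability signal. Reporter Schwann cells (S16 Pmp22-F2sN) had been treated with pin-transferred compounds for 24 h at 37C.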
With `Cn1c(=O)c2c(n3c4ccccc4nc13)NC(=O)CC2c1cccc(F)c1` (stereo not drawn), the “activity change, negative = cytotoxicity” value is inactive: 1.89%.

`Cc1cccc(-n2ncc(C(=O)N3CCc4ccccc4C3)c2C2CCN(C(=O)OC(C)(C)C)CC2)c1`: the “activity change, negative = cytotoxicity” value is inactive: -9.84%.

On to `CSc1ncc2c(n1)-c1ccccc1N(Cc1ccc(F)cc1)S2(=O)=O`, for which the “activity change, negative = cytotoxicity” value is inactive: -9.9%.

In the case of `COC(=O)c1nnn(CC(=O)Nc2cc(F)ccc2F)c1C(=O)OC`, the “activity change, negative = cytotoxicity” value is inactive: -9.36%.

As for `O=C(NCCc1ccc(Cl)cc1)C(=O)NCC(c1ccco1)S(=O)(=O)c1cccs1` (stereo not drawn), the “activity change, negative = cytotoxicity” value was inactive: -11.2%.

For the compound `Cc1nn2c(=O)cc(COC(=O)c3cccc(NC(=O)COc4ccc(C)c(C)c4)c3)nc2s1`, the “activity change, negative = cytotoxicity” value was inactive: -15.4%.

As to `Cc1c(-c2nsc(NC(=O)c3cccs3)n2)nnn1-c1ccc(Cl)cc1`, the “activity change, negative = cytotoxicity” value was inactive: -3.72%.

For `CCSc1ncc(Cl)c(C(=O)N(Cc2ccccc2Cl)C2CCS(=O)(=O)C2)n1` (stereo not drawn), the “activity change, negative = cytotoxicity” value was inactive: -18.8%.

With `O=C(C1CCN(S(=O)(=O)c2cccs2)CC1)N1CCN(c2cccc(Cl)c2)CC1`, the “activity change, negative = cytotoxicity” value is inactive: 6.71%.

On to `CCOc1ccc(-c2cc3c(=O)n(CC(=O)NCc4ccc(OC)cc4)ccn3n2)cc1`, for which the “activity change, negative = cytotoxicity” value is inactive: -1.14%.

On to `CCS(=O)(=O)N1CCc2cc(C(=O)Nc3cccc(C)c3C)ccc21`, for which the “activity change, negative = cytotoxicity” value was inactive: 0.208%.

`CCCc1ccc(OC(=O)CSc2nnc(-c3cccs3)o2)cc1`: the “activity change, negative = cytotoxicity” value is inactive: 1.52%.

Take `CSc1ccc(CCNC(=O)CCn2c(=O)c3cccn3c3cccnc32)cc1`: the “activity change, negative = cytotoxicity” value is inactive: 21.5%.

For `Cc1ccc(OCCSc2nc3ccc(NC(=O)c4ccc5c(c4)OCO5)cc3s2)cc1`, the “activity change, negative = cytotoxicity” value is inactive: -0.442%.

With `O=C(Nc1ccc(F)cc1)C1CCN(c2nc3ccccc3n3cccc23)CC1`, the “activity change, negative = cytotoxicity” value is inactive: 3.99%.

Consider `COc1ccc(NC(=O)c2cc3c(=O)n(C)c4ccccc4c3s2)cc1Cl`, for which the “activity change, negative = cytotoxicity” value was inactive: 3.85%.

Regarding `CCOC(=O)C1CCCN(C(=O)c2c(C)nn(-c3ccc(F)cc3)c2-n2cccc2)C1` (stereo not drawn), the “activity change, negative = cytotoxicity” value was inactive: 5.16%.

Take `Cc1nc(-n2nc(C)c(Cc3ccccc3Cl)c2C)sc1C(=O)N1CCC(C)CC1`: the “activity change, negative = cytotoxicity” value was inactive: 1.71%.

Regarding `O=C(CCn1cccn1)NCc1ccc(Cl)cc1`, the “activity change, negative = cytotoxicity” value is inactive: -11%.

`CCOC(=O)C(CC)Sc1ncnc2sc3c(c12)CCCC3` (stereo not drawn): the “activity change, negative = cytotoxicity” value is inactive: 1.92%.

In the case of `Cc1cccc(NC(=O)CSc2nnc(N)s2)c1`, the “activity change, negative = cytotoxicity” value was inactive: -1.32%.

For `O=C(NC1(C(F)(F)F)NC(=O)N(CCc2ccccc2)C1=O)c1ccccc1Cl` (stereo not drawn), the “activity change, negative = cytotoxicity” value is inactive: 7.42%.

For the compound `COc1ccccc1Cn1c(CNS(=O)(=O)c2ccc3c(c2)CCCC3)nc2cccnc21`, the “activity change, negative = cytotoxicity” value was inactive: -8.67%.

For the compound `COc1ccccc1N1CCN(C(=O)CSc2nc3ccccc3nc2Cc2ccc(F)cc2)CC1`, the “activity change, negative = cytotoxicity” value was inactive: -5.67%.

For `Cc1csc2nc(COc3ccc(NC(=O)COc4ccccc4F)cc3)cc(=O)n12`, the “activity change, negative = cytotoxicity” value is inactive: 1.86%.

As for `Cn1c(CNC(=O)CSc2n[nH]c(-c3ccccc3)n2)nc2ccccc21`, the “activity change, negative = cytotoxicity” value was inactive: 3.88%.

As to `CCCCCOC(=O)CSc1nc2sc3c(c2c(=O)n1Cc1ccccc1)CC(C)(C)OC3`, the “activity change, negative = cytotoxicity” value was inactive: -0.412%.

Turning to `CC(C)(C)C1CCc2c(sc(NC(=O)Cn3nnc(-c4cccc(C(F)(F)F)c4)n3)c2C#N)C1` (stereo not drawn), the “activity change, negative = cytotoxicity” value was inactive: 1.05%.

Regarding `CCCCc1nn2c(=O)cc(COC(=O)c3ccc(NC(=O)c4cccs4)cc3)nc2s1`, the “activity change, negative = cytotoxicity” value is inactive: 9.44%.

In the case of `CCN1CCSc2ccc(C(=O)NCc3cccc(F)c3)cc21`, the “activity change, negative = cytotoxicity” value was inactive: -9.61%.

On to `O=C(Cn1c(=O)n(-c2ccc(Cl)cc2)c(=O)c2c3c(sc21)CCC3)c1ccc(F)cc1`, for which the “activity change, negative = cytotoxicity” value is inactive: -2.57%.

For `Cc1ccccc1NCc1cccn1-c1nnc(N2CCOCC2)s1`, the “activity change, negative = cytotoxicity” value was inactive: -2.02%.

Turning to `O=[N+]([O-])c1cc(-c2nc(-c3ccccc3)no2)ccc1N1CCCC1`, the “activity change, negative = cytotoxicity” value is inactive: -0.846%.

For the compound `COc1cccc(CNC(=O)CCc2nnc3n(CC(C)C)c(=O)c4ccccc4n23)c1`, the “activity change, negative = cytotoxicity” value was inactive: 12%.

With `Cc1ccc(NC(=O)CSc2nnc3[nH]c(=O)cc(C)n23)cc1Cl`, the “activity change, negative = cytotoxicity” value was inactive: -1.2%.

For the compound `CC(C)CC(=O)N1CC(=O)Nc2ccc(F)cc2C1c1ccccc1` (stereo not drawn), the “activity change, negative = cytotoxicity” value was inactive: 20.8%.

For `CCC(Sc1nc2c(sc3ccccc32)c(=O)n1CCCC(=O)NC1CCCC1)C(=O)Nc1cccc(OC)c1` (stereo not drawn), the “activity change, negative = cytotoxicity” value is inactive: 16.9%.

For the compound `CC(C)OCCCn1c(SCC(=O)Nc2ccc(F)cc2)nc2c(sc3ccccc32)c1=O`, the “activity change, negative = cytotoxicity” value is inactive: 13.4%.

Regarding `Cc1nc2sccn2c(=O)c1S(=O)(=O)Nc1ccc(N2CCN(S(C)(=O)=O)CC2)cc1`, the “activity change, negative = cytotoxicity” value is inactive: -19.4%.

Take `CCC(=O)N1c2ccccc2CC1C(=O)NCCN1CCN(c2cccc(C)c2C)CC1` (stereo not drawn): the “activity change, negative = cytotoxicity” value is inactive: 9.68%.

Consider `O=C(CSc1nc(-c2ccccc2)[nH]c1-c1ccccc1)Nc1ccc2c(c1)OCO2`, for which the Potency was active: 35.5 µM.

`CCOc1cc(C#N)c(NC(=O)c2cccc(S(=O)(=O)N3CCOCC3)c2)cc1OCC`: the “activity change, negative = cytotoxicity” value is inactive: 0.0399%.

For the compound `CCC(=O)N1CCc2cc(CNC(=O)Nc3ccccc3Cl)ccc21`, the “activity change, negative = cytotoxicity” value is inactive: -10.2%.

`O=C(CCNS(=O)(=O)c1ccc2c(c1)CCCC(=O)N2)NCc1ccccc1Cl`: the “activity change, negative = cytotoxicity” value is inactive: 12.9%.

In the case of `COc1cccc(NC(=O)CN(C)S(=O)(=O)c2cccs2)c1`, the “activity change, negative = cytotoxicity” value is inactive: 6.07%.

Take `COc1cc(CNC(=O)CSCc2nc3cccnc3n2C2CCCCC2)cc(OC)c1OC`: the “activity change, negative = cytotoxicity” value was inactive: -6.4%.

In the case of `Cc1ccc(C)c(NC(=O)CCc2nc(-c3ccc(C(C)(C)C)cc3)no2)c1`, the “activity change, negative = cytotoxicity” value was inactive: -20.4%.

`CCCS(=O)(=O)N1CC(=O)N(c2ccccc2F)C(C)(C(=O)NC2CCCCCC2)C1` (stereo not drawn): the “activity change, negative = cytotoxicity” value was inactive: -2.09%.

`COc1ccc(CCNC(=O)c2cc(C)nc3c2c(C)nn3-c2ccccc2)cc1OC`: the “activity change, negative = cytotoxicity” value was inactive: 15.2%.

Regarding `CC1CCN(C(=O)CSc2nc(-c3ccc(C(C)C)cc3)no2)CC1`, the “activity change, negative = cytotoxicity” value is inactive: -1.84%.

Take `CC(C(=O)NCc1ccccc1)N1Cc2ccccc2C1=O` (stereo not drawn): the “activity change, negative = cytotoxicity” value is inactive: 13.9%.

With `CCCc1ccc(OCC(=O)Nc2scc(-c3cccs3)c2C(=O)OC)cc1`, the “activity change, negative = cytotoxicity” value is inactive: 7.95%.

Take `COc1ccc2c(c1)CC(C(=O)NCCN1CCN(c3cccc(Cl)c3)CC1)CO2` (stereo not drawn): the “activity change, negative = cytotoxicity” value is inactive: -17.5%.

For the compound `O=C(c1ccc2c(c1)N(Cc1ccc(F)cc1)CCS2)N1CCN(c2ccccc2)CC1`, the “activity change, negative = cytotoxicity” value was inactive: -26.4%.

For `Cc1ccc(CNC(=O)c2sc3nc4n(c(=O)c3c2C)CCCC4)cc1`, the “activity change, negative = cytotoxicity” value is inactive: 6.13%.

`Cc1nc(Oc2ccccc2C)c2oc3ccccc3c2n1`: the “activity change, negative = cytotoxicity” value is inactive: -18.4%.

As to `COc1ccc2nc3oc(C(=O)Nc4cccc(C(F)(F)F)c4)cc3cc2c1`, the “activity change, negative = cytotoxicity” value was inactive: 14%.

Consider `Cc1ccc2nc(-c3ccc(C)c(NC(=O)Cc4ccccc4)c3)oc2c1`, for which the “activity change, negative = cytotoxicity” value was inactive: -14.7%.

On to `Cc1ccccc1CN1CCc2nc(N3CCN(c4ccccn4)CC3)ncc2C1`, for which the “activity change, negative = cytotoxicity” value is inactive: 7.12%.

On to `Cc1c(C2=CCN(S(=O)(=O)c3ccc(Br)cc3)CC2)c2ccccc2n1CC(=O)N1CCCC1`, for which the “activity change, negative = cytotoxicity” value is inactive: 3.2%.

`Cc1ccc(CNC(=O)CSc2c3c(nc4ccc(Cl)cc24)CCCC3)cc1`: the “activity change, negative = cytotoxicity” value was inactive: 1.29%.

As to `Cc1cccc(Nc2nc(C)nc(N)c2S(=O)(=O)c2ccccc2)c1`, the “activity change, negative = cytotoxicity” value is inactive: 21%.

Take `COc1ccc(N2CCN(CCCNC(=O)c3ccc4nc(CCc5ccccc5)oc4c3)CC2)cc1`: the “activity change, negative = cytotoxicity” value was inactive: -27.8%.
